The record followed here is US6811967B2, “Method for assaying non-spermine/spermidine activity of spermidine/spermine N1-acetyltransferase (SSAT)” (The University of Manitoba, priority 2001, dated 2004).

Data set [1] relates to T1, NCCCCNCCCN
T1 construct: from tissue; host or cells: liver 100,000xg supernatant of transgenic and non-transgenic male CD2F1 mice
Put plainly: purified protein, by the assay type. The class given is biochemical. Conditions: other: representative plot FIG. 3, transgenic mouse liver supernatant, no amantadine; 37.0 °C.

The test system of data set [2] is NCCCCNCCCN
In words: purified protein, by the assay type. Conditions: 37.0 °C.

For orientation: Km means the concentration of substrate that gives half-maximal velocity. In the case of “spermidine/spermine N1-acetyltransferase (SSAT) (Mus musculus)”, the Km in data set [1] is 263 µM; in data set [2], 267 ± 46 µM. The Vmax in data set [1] amounted to 0.010 nmol/min/mg protein.
